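All cell lines were grown in 96-well plates and treated with compound for 48 hours. GI50: concentration for 50% inhibition of growth.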 Activity calls are given as the source filed them. No stated cut-off is given here; in the data, active = GI50 up to about 1.1 µM and inactive = higher. Numbered stars: 1 amine (or outer) side, 2 acyl side, 3 side chain; on linkers, the order of the positions; unused ones are H or OH. Square brackets hold non-standard residues; d marks the D form. Peptide text beside a SMILES is read from it. X3 = CC[C@H](C)[C@H](OC(=O)[C@@H](C)[C@@H](CC)N[*:1])C(=O)[*:2]; X4 = C[C@H](N[*:1])C(=O)C(C)(C)C(=O)[*:2]; NMeY = CN[C@@H](Cc1ccc(O)cc1)C(=O)O; NMeL = CN[C@@H](CC(C)C)C(=O)O; NMeV = CN[C@H](C(=O)O)C(C)C
The compounds below were run on NCI-H322M (assay: growth of human tumour cells (NCI), 48 h).

Compound | GI50
C[n+]1c2ccccc2cc2c(CNC(CCCNC(=N)N)C(=O)O)cccc21 (stereo not given) | inactive: 5.14 µM
CC[C@@H](C)[C@H]([C@H](CC(=O)N1CCC[C@@H]1[C@@H](OC)[C@H](C)C(=O)N[C@H](Cc1ccccc1)c1nccs1)OC)N(C)C(=O)[C@H](NC(=O)[C@@H](C(C)C)N(C)C)C(C)C | active: 0.000106 µM
COc1cc(C2c3cc4c(cc3OC(NNC(N)=S)C2C)OCO4)cc(OC)c1OC (stereo not given) | active: 0.497 µM
COC(=O)C(Cl)=C1CC1 | inactive: > 100 µM
COc1cc(/C=C2/C(=O)N(C(=O)c3ccc(Cl)cc3)N=C2C)cc(OC)c1OC | inactive: > 100 µM
O=[N+]([O-])c1cc(-c2nnc(C34CC5CC(CC(C5)C3)C4)o2)cc([N+](=O)[O-])c1 | inactive: 35 µM
O=c1oc2ccccc2cc1-c1ccc([N+](=O)[O-])cc1 | inactive: > 100 µM
NC(=O)N/N=C(\CC1OC(=O)c2ccccc21)c1ccc([N+](=O)[O-])cc1 (stereo not given) | inactive: 28.6 µM
Cc1nc(Nc2nc3ccccc3[nH]2)[nH]c(=O)c1CCO | inactive: > 100 µM
O=C(O)CNCc1c2ccccc2nc2ccccc12 | inactive: 69.7 µM
Cc1cccc(NC(=S)Nc2ccccc2Cl)n1 | inactive: 84.9 µM
CC(C)(C)[Si](C)(C)OCCCC#CCO | inactive: > 100 µM
CC(=O)NC(CCCCN)C(=O)NCc1ccccc1 (stereo not given) | inactive: > 100 µM
Cc1cc(O)cc2oc(=O)c3c(O)cc(O)cc3c12 [ALTERNARIOL] | inactive: 27.1 µM
Cc1cccc2c1nc1n2C(=O)c2ccccc2-1 | inactive: > 100 µM
COc1ccc(C2SCC(=O)N2NC(=O)c2ccc(NC(C)=O)cc2)cc1 (stereo not given) | inactive: > 100 µM
COc1cc(OC)c2ssc3c(OC)cc(OC)c4ssc1c2-c43 | inactive: > 100 µM
CN(C)C(=O)C1CCN(Cc2c[nH]c3ccccc23)CC1 | inactive: > 100 µM
COC(=N)/C(=C1\OC(=N)C(c2ccc(Cl)cc2)=C1O)c1ccc(Cl)cc1 | inactive: > 100 µM
COCCOc1nc(-c2ccccc2)nc2ccccc12 | inactive: > 100 µM
CCOC(=O)c1cn(CC)c2cc3c(cc2c1=O)CCS3(=O)=O | inactive: > 100 µM
C=CCOc1ccccc1C1(O)c2ccccc2C2=NCCCN21 (stereo not given) | inactive: 48.4 µM
Nc1nc(N)c2ncn(CC3CCC(CO)C3)c2n1 (stereo not given) | inactive: > 100 µM

Compound | GI50
O=C1C=CC2(C=C1)C[C@H](NC(=O)OCc1ccccc1)C(=O)O2 | inactive: > 59.2 µM
COc1cc2cc(C(=O)Nc3cc4n(n3)-c3ccccc3C4)[nH]c2c(OC)c1OC | inactive: 6.56 µM
Cc1cccc(C)c1NC(=O)C(=O)CC(=O)c1cccc([N+](=O)[O-])c1 | inactive: > 100 µM
Cc1cc2c(cc1C)N1C(Cl)=C3CCCCC3=C(C#N)C1N2 (stereo not given) | inactive: 23.4 µM
O=C1c2cc(I)ccc2N2CCN=C2N1Cc1ccccc1 | inactive: > 100 µM
O=C(Nc1cccc(F)c1)c1cc2ccc(O)cc2o/c1=N\c1ccccc1F | inactive: 2.29 µM
COc1ccc2nc(NC(=O)/C(C#N)=C/c3ccccc3)sc2c1 | inactive: > 78.2 µM
O=C(O)c1ccc([Se][Se]c2ccc(C(=O)O)cc2)cc1 | inactive: 5.36 µM
CC(C)C/C=C/C1=NN(c2cccc(S(=O)(=O)O)c2)C2(C1)SCC(=O)N2c1nc2ccccc2s1 (stereo not given) | inactive: > 100 µM
CCOC(=O)c1nc2cc(N3CCOCC3)c(F)cc2[nH]c1=O | inactive: > 100 µM
C[C@]12C=CC(=O)C=C1CC[C@@H]1[C@@H]2CC[C@@]2(C)[C@H]1CC[C@]2(O)C(N)=O | inactive: > 100 µM
COc1ccc(OC)c2c3c(ccc12)C(c1ccccc1)OC3=O (stereo not given) | inactive: 89.3 µM
Cc1ccc(Nc2ncnc3sc(SCc4ccccc4)nc23)cc1 | inactive: > 100 µM
CN(CC(=O)O)Cc1oc(CO)cc(=O)c1O | inactive: > 100 µM
CC(C)OP(=O)(NC(=S)c1ccccc1)OC(C)C | inactive: > 100 µM
CC[C@H](C)[C@@H]1OC(=O)[C@@H](C)[C@@H](CC)NC(=O)[C@H](C)NC(=O)C(C)(C)C(=O)[C@H](C)NC(=O)[C@H](Cc2ccc(OC)cc2)N(C)C(=O)[C@H](C(C)C)N(C)C(=O)CNC(=O)[C@H](CC(C)C)N(C)C(=O)CNC1=O [DOLASTATIN 11] (cyclo(A[X3]G[NMeL]G[NMeV][NMeY](Me)[X4])) | active: 0.459 µM
O=c1c2cc(S(=O)(=O)O)ccc2nc(COc2ccc(Oc3ccc(Cl)cc3Cl)cc2)n1-c1ccc(Cl)cc1Oc1c(Cl)cccc1Cl | inactive: 38.5 µM
C#C[C@H]1CCCCCC1O (stereo not given in full) | inactive: > 100 µM
CCOC(=O)/C(=C\n1c(=O)sc2ccccc21)C(=O)c1ccccc1 | inactive: > 100 µM
N#C/C(=C/c1cccc2ccccc12)C(=O)c1ccccc1 | inactive: > 100 µM
C=CC1(CC/C(=C\[N+](=O)[O-])c2ccc(OC)c(OC)c2)OCC(C)(C)CO1 | inactive: 19.7 µM
O=c1cccccc1NCCCCCCCNc1cccccc1=O | inactive: > 100 µM
O=C1Nc2ccccc2C1S(=O)(=O)c1ccccc1 (stereo not given) | inactive: > 100 µM

Compound | GI50
CCCCCC(/C=C/C1CCC(=O)C1)OCOCCOC (stereo not given) | inactive: > 100 µM
C=C[C@H]1CN2CCc3c([nH]c4cc(O)ccc34)[C@@H]2C[C@@H]1C[C@H]1c2[nH]c3ccccc3c2CCN1C | inactive: 4.94 µM
NCC(O)CNCC/C=C\C/C=C\C/C=C\C/C=C\C/C=C\C/C=C\CCCCC/C=C\CCNCC(O)CN (stereo not given) | inactive: 1.7 µM
C[C@]12C/C(=C/O)C(=O)C(O)=C1CC[C@@H]1C2CC[C@@]2(C)C1CC[C@@H]2O (stereo not given in full) | inactive: 22.2 µM
[N-]=[N+]=Nc1cc(=O)[nH]c2ccccc12 | inactive: > 100 µM
CC(C)Cn1cnc2c(Sc3c([N+](=O)[O-])ncn3C)nc(N)nc21 | inactive: 97.7 µM
CC(Cl)(CCC(Cl)C(C)(C)Cl)C(=O)CBr (stereo not given) | inactive: 22.7 µM
CCOC(=O)C1=CN2C(=N[C@H]3CCCC[C@@H]32)NC1=O | inactive: > 100 µM
COc1ccc(-c2cc(-c3cc(Cl)cc(Br)c3O)nc(O)n2)cc1 | inactive: 21.4 µM
CN1CCN(c2cc(-c3cc4ccccc4o3)oc(=O)c2C#N)CC1 | inactive: > 100 µM
COc1ccc(-c2c(N)n(-c3cc(OC)cc(OC)c3)c(=O)c3cc([N+](=O)[O-])ccc23)cc1 | inactive: > 100 µM
COc1nc2ccc(CNc3ccc(C(=O)O)cc3)cc2nc1OC | inactive: > 10 µM
COC(=O)C1C(OC(=O)c2ccccc2)CC2CCC1N2C(N)=O (stereo not given) | inactive: > 100 µM
C=CC1(C)OC2(CCN(C(=O)OCC)CC2)OC1C (stereo not given) | inactive: > 100 µM
CC(C)C1C(=O)NC(CO)Cc2c[nH]c3c(C(c4c[nH]c5ccccc45)C(O)CO)ccc(c23)N1C (stereo not given) | inactive: > 100 µM
CC(=O)c1c2c(cc3c1CC1(C3)Cc3cc4c(c(C(=O)O)c3C1)CCC4)CCC2 (stereo not given) | inactive: 29.8 µM
COc1ccc2oc(OC)c(CC=C(C)C)c(=O)c2c1C | inactive: > 100 µM
COc1ccc(/C=C\c2cc(OC)c(OC)c(OC)c2)cc1OC(=O)CC(N)C(=O)O (stereo not given) | active: 0.00432 µM
C/C=C(\C)C(=O)OC1/C=C(\C)CC/C=C(\C)CC2OC(=O)C(C)(OC(C)=O)C12 (stereo not given) | inactive: > 100 µM
O=C(CC1=Nc2nnc(CCCCCCCc3nnc4n3C(=O)C(CC(=O)c3ccccc3)=N4)n2C1=O)c1ccccc1 | inactive: > 100 µM
Cc1ccc([S+]([O-])C[C@](NC(=O)OCc2ccccc2)(Sc2ccccc2)C(F)F)cc1 (stereo not given in full) | inactive: 17.9 µM
C[C@]12CC[C@H]3[C@@H](CCC4=CC(=O)CC[C@@]43C)[C@@H]1CC[C@@H]2C(=O)COS(=O)(=O)c1ccc(Br)cc1 | inactive: 18.5 µM
OC(c1cc(-c2ccccc2)nc2c1ccc1ccccc12)C1CCCCN1 (stereo not given) | inactive: 1.64 µM

Compound | GI50
CC(=O)c1c2c(cc3c1CC1(C3)Cc3cc4c(c(C(C)=O)c3C1)CCCC4)CCCC2 | inactive: > 100 µM
Cn1cc(NC(=O)c2cc(NC(=O)c3cc(NC=O)cn3C)cn2C)cc1C(=O)NCCC(=N)N [STALLIMYCIN] | inactive: > 100 µM
CCOC1CN=C(Nc2cccc3ccccc23)S1 (stereo not given) | inactive: > 10 µM
Cc1noc2nnn(-c3ccc(Cl)cc3)c(=O)c12 | inactive: 11.9 µM
O=c1[nH]c(-c2ccccc2)nc2c1sc1nc3ccccc3n12 | inactive: > 100 µM
c1ccc2sc(SCCSc3nc4ccccc4s3)nc2c1 | inactive: > 100 µM
Cc1cc2c(cc1Cl)SC(c1ccccc1O)NS2(=O)=O (stereo not given) | inactive: > 100 µM
CCOC(=O)O/C(=C\c1ccc(OC)cc1)c1c(OC(=O)OCC)n(C(=O)OCC)c2ccccc12 | inactive: 35.1 µM
Cc1ccc2c(O)cc(-c3ccc4ccccc4c3)nc2n1 | inactive: 4.47 µM
CC(Oc1ccc2c(-c3ccccc3)cc(=O)oc2c1)C(=O)O (stereo not given) | inactive: > 100 µM
CC(C)N(Cc1ccccc1)S(=O)(=O)c1nc(C(C)(C)C)n[nH]1 | inactive: > 100 µM
C=C1C(=O)O[C@H]2C1C[C@H](O)[C@@]1(C)OC1CC[C@@]1(C)O[C@H]21 (stereo not given in full) | inactive: 41 µM
Cc1cc(Br)cc(C)c1NC(=O)C(=O)C(C(=O)c1ccc2ccccc2c1)C1OC(=O)c2ccccc21 (stereo not given) | inactive: 6.22 µM
N=C(N)NCCCC(NCc1c2ccccc2[n+]([O-])c2ccccc12)C(=O)O (stereo not given) | inactive: 40.7 µM
Cn1/c(=N\N=C2\C=C3CCCCC3(C)CC2)sc2ccccc21 (stereo not given) | inactive: > 100 µM
Cc1ccc(-c2n[nH]c(=O)n2N2C(=O)c3ccccc3C2=O)cc1 | inactive: > 100 µM
O=C(/C=C/c1ccc2c(c1)OCO2)NCCc1ccco1 | inactive: 76.4 µM
O=C1CC2(CCC(O)(c3ccccc3)C(C(=O)c3ccccc3)C2)C(=O)c2ccccc2N1 (stereo not given) | inactive: > 100 µM
O=C(Nc1ccccc1)N1CC(CN2CCN(c3ccccc3)CC2)OC1=O (stereo not given) | inactive: > 10 µM
CCC1(O)CC(OC2CC(N(C)C)C(OC3CC(O)C(OC4CCC(=O)C(C)O4)C(C)O3)C(C)O2)c2c(O)c3c(c(O)c2C1C(=O)OC)C(=O)c1cccc(O)c1C3=O (stereo not given) | active: 0.01 µM
O=c1ssc2ncccc12 | inactive: 36.6 µM
